# In the supplement of paper PMC11417369:
# ± gives the standard deviation of the averaged measurements. The list shows a part of the results.
# System: PfAP2-EXP AP2 domain (GST-tagged)
# Experiment: gcPBM binding intensity (ln(normalized median fluorescence intensity)); higher = stronger DNA binding
# How it was run: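 Alexa488 anti-GST antibody, scanned at 488 nm, detected GST-tagged P. falciparum DNA-binding domains that had been expressed in E. coli and incubated for 1 h on an Agilent 4 × 180k array. The array carried primer-extended double-stranded 36-bp intergenic genomic probes and negative controls. Binding intensity is the highest Masliner-normalised natural-log median intensity across replicate spots of either orientation of each probe.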
row,Sequence,gcPBM binding intensity (ln)
1,TATAAAATGACTATATATAATATTAAAAAAAAAAAA [TGCATGCA_negctrl_site387],8.23 ± 0.52
2,ATTATATATACATAATGTACATATATATATTACCTT [XGTACX_site7624],8.4 ± 0.35
3,TAAATTAAGAATTTTACACACATTAAATAAAAAAAA [CACACA_site3638],8.24 ± 0.41
4,AAAAAAAAAAAAAATTCACACACATATAAAAAATTA [CACACA_site8140],8.31 ± 0.47
5,AAATTAGGAAATTGCACACAAAAAAAAACATATTAT [CACACA_site4074],8.61 ± 0.45
6,TTTTTTTATTTTTTTATAAATGTATTTCTATTATTT [CACACA_negctrl_site1562],8.19 ± 0.43
7,TAAAAAATAAATATATGTACGCAATAAATGTGTTAA [XGTACX_site4043],8.47 ± 0.22
8,ACACATATGCATATATGTACATAATATATTAAACTT [XGTACX_site5975],8.74 ± 0.46
9,AAAAAAAAAAGACACACACACACACTAATACATACA [CACACA_site6473],8.62 ± 0.54
10,ATGTTTTACAAAAACACACAAATGAATATAAACATA [CACACA_site6667],8.68 ± 0.41
11,ATACCTATTTGATGAGTGCATTATCCAATATATGTA,8.85 ± 0.3
12,AAAAGTGATGAGACAAGTACTAACATATTATTATTA [XGTACX_site1533],8.39 ± 0.38
13,TTTTCTGTATAAACTTGTACATATATTTCCTTGTTT [XGTACX_site5745],8.69 ± 0.32
14,AAATATATATGTATATGTACTTATTTATTTAAAAGG [XGTACX_site4093],8.03 ± 0.39
15,TTTATTATATATAAAAGTACACATTGTAAGGAAACA [XGTACX_site8560],8.88 ± 0.24
16,ATATGTTCTACAAAAAAGATGTCGATTTATTTTCTT [CACACA_negctrl_site1179],8.39 ± 0.54
17,AAATAAAATATCAATTAAAACAGAATTGAATTTTTA [CACACA_negctrl_site181],8.25 ± 0.41
18,AACATGTTAAAATAAACACACAGCTAAGGTTTTTTT [CACACA_site157],8.43 ± 0.42
19,AAAAAAAAAAAAAAATGTACAAATAGTAGTTACAGA [XGTACX_site2531],8.6 ± 0.45
20,GCAAATGTGAAAACGTGTACACATTTTATTTAATTT [XGTACX_site8000],8.52 ± 0.24
21,ATTTAAGATTTAATCACACACATATATATTATATAC [CACACA_site2907],8.38 ± 0.44
22,ATAATATATGTATATCCACACACATATATATATATA [CACACA_site8471],10.2 ± 0.38

row,Sequence,gcPBM binding intensity (ln)
1,AAATGTAGATATTATCGTACACATATATTTATATAT [XGTACX_site6326],8.4 ± 0.23
2,TATTTGTAAATCGATACACACATATATATTAATATA [CACACA_site196],8.56 ± 0.64
3,AAAACATACCTATATACACACATATAAATATAAATA [CACACA_site6956],8.54 ± 0.35
4,TTTGATATAGAAAGAGCATGCAAGTTAGATAAAATA [TGCATGCA_site470],9.66 ± 0.36
5,AATAAATTATTATGTACACACATAATAGTATATATA [CACACA_site1820],8.35 ± 0.28
6,TATATATTAATATACACACACACATATATATATATA [CACACA_site1608],10.1 ± 0.33
7,TTTTTTTTTTTTTGGTTCACACTGAAAAGAGAGATA [GTGCAC_negctrl_site439],8.48 ± 0.61
8,AAAACAAAATAGGGAACACACACATGTCAATATATA [CACACA_site8834],8.88 ± 0.41
9,TTTCAAACTGTTCTCACACACGAAATTAGAAATGAA [CACACA_site4509],8.62 ± 0.47
10,CAATCATGGTTTTACACACACATGCATGTGAAAATT [CACACA_site4870],9.3 ± 0.47
11,TTTTGTTATTTTGAAGTGCACTTTCCACTTAATATA,9.245 ± 0.035
12,TCATGTTTTACAAAAACACACAAATGAATATAAACA [CACACA_site4775],8.67 ± 0.44
13,AATAAATAAAAATTATGTACATATATAAAAAATACA [XGTACX_site8581],8.77 ± 0.25
14,TCGAATTTGGAAAGAAGTACATGAAGCCAACATATG [XGTACX_site5222],8.91 ± 0.51
15,TATATACATAGACACCCACACACAAAAAAAAAAAAA [CACACA_site8186],8.46 ± 0.64
16,AAGAATAATAACAAATGTACTTATATAAAGTATTAT [XGTACX_site2336],8.52 ± 0.42
17,TAATTAAATATTTTCCTACAATTAATAAGAAAAGGA [XGTACX_negctrl_site565],8.3 ± 0.34
18,AAATATAATATATGCACACATACATACATATATATA [CACACA_site104],8.46 ± 0.22
19,TTTTCCTTTTTGGAATGTACACATATATATTAAATG [XGTACX_site4700],8.29 ± 0.3
20,CAGCTCTTAAAAATTACACACATATACGCATATATA [CACACA_site3267],8.4 ± 0.44
21,TATTAAGAAGAAAATTCACACATTTGTACCTCTCTT [CACACA_site4822],8.22 ± 0.44
22,TATAAATAGATATATACACACATGAAAATAAATAAA [CACACA_site7228],8.73 ± 0.39
